Source: the supplement of paper PMC10338343
± gives the standard deviation. The full ranking holds about 6,600 sequences; the median of “pre-steady-state target cleavage rate” is about 0.07, and the highest 2% start at about 0.72. This is a selection; strong and weak results do not stand in their true shares.

System: MIWI (PIWIL1) piRISC loaded with Kctd7 piRNA (30 nt)
Assay: pre-steady-state target cleavage rate (min^-1); MIWI and MILI are mouse PIWI proteins and EfPiwi is from a freshwater sponge; tags in brackets are library labels; higher = faster piRNA-guided slicing of the target
Conditions: guide: Kctd7 piRNA 5'p-UGUUAAUCUCUCAGAGAAGGUGACAGUGAU; auxiliary factor: 500 nM mouse GTSF1
Method in brief: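 In this Cleave-'n-Seq assay, uncleaved targets were sequenced and normalised to depth and to weakly complementary targets. They came from a transcribed, DNA-blocked target RNA library […] mixed with 1 nM active affinity-purified piRISC carrying one synthetic guide, with or without 500 nM GTSF1 partner protein, in HEPES–potassium acetate buffer at 33 °C for 0–8 or 0–960 min. After three trials were pooled and k3 was capped at 0.0001 min^-1, the pre-steady-state cleavage rate was obtained from a burst-and-steady-state fit.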
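Also: 1 nM active piRISC with 0.1 nM target library at 33 °C single turnover.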

Sequence | pre-steady-state target cleavage rate
UAGUGACAGACCUUCUGUGAGAGAUUAACA | 0.0705 ± 0.013
UAGUGACAGUGGUUCUCUGUCUGAUUAACA | < 0.0001
UACUCUCUCACCUUCUCUGAGAGAUUAACA | 0.195 ± 0.019
UAGACAGUCACCUUCUCUGACAGAUUAACA | 0.571 ± 0.033
UAGUGACAGACCUUCUCUGAGAGGUUAACA | 0.058 ± 0.015
UAGUGACAGUGCAUCUCUGAGAGAUAAACA | < 0.0001
UAGACUGUCACCUAGUCUGAGAGAUUAAGA | 0.0592 ± 0.015
UACCCUGUCACCUUCUCUGAGAGAUUAACA | 0.638 ± 0.034
UUCACUCAGACCUUCUCUGAGAGAUUAAGA | 0.011 ± 0.0036
UAGUGUGUCACCUUGUCUGACAGAUUAACA | 0.204 ± 0.032
UAGUGACAGAGCUUCUCUGAGAGAUUUACA | 0.00888 ± 0.0034
UAGACUGUCACCUUCUCUCACAGAUUAACA | 0.00825 ± 0.002
UAGUGACAGACCUUCUGUGAGAGAUUUACA | 0.0319 ± 0.0076
AUGACUGUCACGUUCUCUGAGAGAUUAACA | 0.755 ± 0.054
UAGUCUGACACCUUCUCUGAGAGAAUAACA | 0.22 ± 0.04
UAGUGACACACCUUCUCUGGAGAUUAACA | 0.0248 ± 0.0053
UAGUGACAGUUCUUCUCUGAGAGAUUAACA | 0.0202 ± 0.0035
UAGUGACAGUCCAUCUCUGAGAGAUUAUCA | 0.0033 ± 0.0029
UAGUGUGUCACCUUCUCUGAGAGUUUAACA | 0.473 ± 0.087
UUCACUGUCACAUUCUCUGAGAGAUUAACA | 0.682 ± 0.031
UAGUGACUCACCUUCUCUGAGAGAUAUUCA | 0.0696 ± 0.016
UAGUCUGUCACCUUCUCUGACGAGAUUAACA | 0.0121 ± 0.0053
UAGUCUGUCGCCUUCUCUGAGAGAUUAACA | 0.684 ± 0.053

Sequence | pre-steady-state target cleavage rate
UAGUGUGUCACCGUUCUCUGAGAGAUUAACA | 0.453 ± 0.037
UAGUGAGUCUCCUUCUCAGAGAGAUUAACA | 0.152 ± 0.017
UAGUGACAGUCCUUCUCUGAGAUAUUAACA | 0.0174 ± 0.0036
UAGUGACAGUGGAAGAGUGAGUGUUUAACA | < 0.0001
UAGUGAGUCACCUUCUCUGAGACUUAUUGA | 0.00403 ± 0.0035
UAGUCUGUCACCUUCUCUGAGAGAAAAACA | 0.144 ± 0.027
UAGUGAGUCACGUUCUCUGAGAGAUUAUGA | 0.0314 ± 0.0098
UAGUGACAGACCUUCUCUGAGAGAUAAACA | 0.0673 ± 0.0093
AUCACUGUCACCUUCUGAGAGAGAUUAACA | 0.06 ± 0.0094
AUCACUGUCACCUUCUCUGAGUGAUUAAGA | 0.00862 ± 0.0047
AUCACUGUCACCUUCUCUGAGAGAAUUAACA | 0.738 ± 0.13
UAGACUCUCACCUUCUCUGUGAGAUUAACA | 0.197 ± 0.0098
UAGUGACAGUCCUUCGUCUGAGAGAUUAACA | 0.00403 ± 0.0018
UACACUGUCAGCCUUCUCUGAGAGAUUAACA | 0.259 ± 0.021
UAGUGACACACCAUCACUGAGAGAUUAACA | 0.0435 ± 0.0092
UACACUGUCACCAUCUCUGACAGAUUAACA | 0.173 ± 0.016
UAGUGACAGACCUUCUCUGAGCGAUUAACA | 0.0395 ± 0.0057
UAGUGACACUCCUUCUCUCAGAGAUUAACA | 0.0115 ± 0.0032
UAGUGACAGUGCUUCUCUGACAGAUAAACA | < 0.0001
AUCACUGUCACCUUCUCUGACAGUUUAACA | 0.038 ± 0.0079
UUCACAGACACCUUCUCUGAGAGAUUAACA | 0.505 ± 0.03
UACACUGCCACCUUCUCUGAGAGAUUAACA | 0.613 ± 0.035
AAGUCUGUCACCUUCUCUGAGAGAUUAACA | 0.704 ± 0.031
